According to PubChem BioAssay AID1347165 (National Center for Advancing Translational Sciences (NCATS), 2019):
Hit rate of the full screen: of about 220,000 compounds, about 5,700 (2.6%) were called active. The inconclusive results got no clear call from the source; some entries with a clear call stand among them for comparison. Calls follow the shape of the dose curve; as a rule, active = well fitted inhibition curve with a large enough effect; inconclusive = small, poorly fitted or top-dose-only effect; inactive = no such curve, though single readings can be large or run the other way. Potencies beside an inconclusive call are fits to weak or partial responses and may not hold up.

Each compound was assayed against Lysine-specific demethylase 5B (Homo sapiens) (UniProt Q9UGL1) (assay: Primary screen for KDM5B Histone Demethylases FDH-coupled qHTS). Details: FDH-coupled NADH fluorescence (FDH is formaldehyde dehydrogenase); series mostly up to 57.7 µM.
Chain of UniProt Q9UGL1 (Q9UGL1 whole entry, looked up): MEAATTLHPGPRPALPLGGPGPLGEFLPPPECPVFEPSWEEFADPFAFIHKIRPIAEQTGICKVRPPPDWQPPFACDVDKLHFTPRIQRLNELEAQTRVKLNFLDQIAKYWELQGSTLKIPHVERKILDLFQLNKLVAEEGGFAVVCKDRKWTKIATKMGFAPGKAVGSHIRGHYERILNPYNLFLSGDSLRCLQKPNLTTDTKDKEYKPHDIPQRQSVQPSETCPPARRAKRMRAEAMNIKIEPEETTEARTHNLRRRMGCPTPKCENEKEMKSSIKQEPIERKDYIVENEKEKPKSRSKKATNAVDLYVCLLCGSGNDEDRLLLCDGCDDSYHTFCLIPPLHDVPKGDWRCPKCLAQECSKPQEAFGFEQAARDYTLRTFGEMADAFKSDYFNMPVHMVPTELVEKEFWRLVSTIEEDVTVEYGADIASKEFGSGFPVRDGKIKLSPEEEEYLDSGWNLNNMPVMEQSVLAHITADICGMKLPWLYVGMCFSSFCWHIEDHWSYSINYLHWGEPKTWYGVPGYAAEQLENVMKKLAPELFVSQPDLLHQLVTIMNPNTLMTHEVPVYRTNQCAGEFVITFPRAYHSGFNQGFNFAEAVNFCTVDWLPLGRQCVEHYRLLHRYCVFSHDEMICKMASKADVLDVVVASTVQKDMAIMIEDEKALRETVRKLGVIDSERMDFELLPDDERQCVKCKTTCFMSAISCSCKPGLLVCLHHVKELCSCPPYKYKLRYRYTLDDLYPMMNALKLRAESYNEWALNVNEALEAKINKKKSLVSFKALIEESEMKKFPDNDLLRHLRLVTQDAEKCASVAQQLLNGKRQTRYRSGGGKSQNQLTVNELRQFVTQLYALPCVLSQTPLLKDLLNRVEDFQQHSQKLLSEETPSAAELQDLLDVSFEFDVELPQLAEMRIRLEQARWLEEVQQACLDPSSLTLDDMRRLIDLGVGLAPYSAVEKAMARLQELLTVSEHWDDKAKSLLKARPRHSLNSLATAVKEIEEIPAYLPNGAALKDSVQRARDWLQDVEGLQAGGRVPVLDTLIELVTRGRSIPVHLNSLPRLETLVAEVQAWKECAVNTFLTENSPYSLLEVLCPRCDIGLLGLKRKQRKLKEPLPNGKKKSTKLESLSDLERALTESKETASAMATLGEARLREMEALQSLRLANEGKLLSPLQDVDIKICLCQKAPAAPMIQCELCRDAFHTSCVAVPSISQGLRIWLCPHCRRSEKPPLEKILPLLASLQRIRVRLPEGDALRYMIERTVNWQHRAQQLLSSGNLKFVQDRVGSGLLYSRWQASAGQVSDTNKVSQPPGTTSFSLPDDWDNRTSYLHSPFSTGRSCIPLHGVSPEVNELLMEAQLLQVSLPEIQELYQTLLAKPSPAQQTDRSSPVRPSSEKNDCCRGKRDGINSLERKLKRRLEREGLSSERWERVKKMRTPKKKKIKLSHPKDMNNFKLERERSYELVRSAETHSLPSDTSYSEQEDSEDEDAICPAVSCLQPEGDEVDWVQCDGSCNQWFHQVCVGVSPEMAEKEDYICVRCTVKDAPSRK
Procedure, shortened: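 Measured: NADH fluorescence change, 30 min, RT. System: KDM5BΔAP 200 nM final, H3K4me3 peptide, α-KG, Fe(II), ascorbate, NAD⁺ plus FDH, pH 7.5 HEPES. Compounds: titrated, 10 min pre-incubation with enzyme.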
Also: nearly all actives have a fitted effect of over 70% in size.
Potency is read from the fitted curve at half-maximal effect; tags tell the direction and shape of the fitted curve.

Question: With `Cc1cc(C[C@@H]2COC[C@@H]2NC(=O)CCc2c(C)nc3ncnn3c2C)on1` as the compound, how does the Potency read?
Answer: The Potency was “inactive”.

Question: For `CCOC(=O)N1CCc2c(sc(NCc3ccc(OC)c(OC)c3OC)c2C(=O)Nc2ccc(OC)cc2OC)C1`, which Potency is on record?
Answer: Its Potency is inconclusive: 10 µM [inhibitor, partial curve, poor fit].

Question: Which Potency does the source give for `CCc1nnc(NC(=O)c2nc(SCc3ccccc3C)ncc2Cl)s1` here?
Answer: The Potency was inconclusive: 12.6 µM [inhibitor, partial curve, poor fit].

Question: For `CCCCCOc1ccc(/C=C/C(=O)Nc2sc(C(C)=O)c(C)c2C(=O)OCC)cc1OC`, which Potency is on record?
Answer: Its Potency is inconclusive: 2.51 µM [inhibitor, partial curve, poor fit].

Question: How did the Potency turn out when `COc1ccccc1-c1nc(C#N)c(N2CCN(C(=O)c3ccccc3)CC2)o1` was run?
Answer: Its Potency is inconclusive: 1 µM [inhibitor, full curve, poor fit].

Question: For `O=C(CNC(=O)C(c1ccccc1)c1ccccc1)N/N=C/c1ccc(O)cc1O`, which Potency is on record?
Answer: The Potency was inconclusive: 25.1 µM [inhibitor, single point].

Question: `CC(C)c1ccc2c(c1)C(N1CCNCC1)Cc1ccc(F)cc1S2` (stereo not drawn) was tested. Which Potency did it give?
Answer: Its Potency is inconclusive: 22.4 µM [inhibitor, single point].

Question: With `COCCN1CC(c2n[nH]c(C3CCOCC3)n2)CCC1=O` (stereo not drawn) as the compound, how does the Potency read?
Answer: The Potency was inconclusive: 11.2 µM [inhibitor, partial curve, poor fit].

Question: For `CS(=O)(=O)c1ccc(C(=O)Nc2ccc(-c3cn4ccsc4n3)cc2)cc1`, which Potency is on record?
Answer: The Potency was “inactive”.

Question: Which Potency does the source give for `Cc1ccccc1OCCC(=O)Nc1ccc2c(C)cc(=O)oc2c1` here?
Answer: Its Potency is inconclusive: 22.4 µM [inhibitor, partial curve, poor fit].

Question: Which Potency does the source give for `N#CC1(NC(=O)CSc2nccn2C2CC2)CCCCC1` here?
Answer: Its Potency is “inactive”.

Question: `C#CCNC(=O)c1nc(-c2ccccc2OC)c2cnccn12` was tested. Which Potency did it give?
Answer: The Potency was active: 89.1 µM.

Question: How did the Potency turn out when `O=C(c1ccc(N2CC3CC(C2)[C@H]2CCCC(=O)N2C3)nc1)N1CCCCC1` (stereo partly drawn) was run?
Answer: Its Potency is inconclusive: 31.6 µM [inhibitor, single point].

Question: `CCn1c(SCc2nc(-c3cccs3)oc2C)nnc1C1CC1` was tested. Which Potency did it give?
Answer: Its Potency is inconclusive: 25.1 µM [inhibitor, partial curve, poor fit].

Question: `Cn1cc(S(=O)(=O)N2CCCCCC2)cc1C(=O)NCc1ccccc1Cl` was tested. Which Potency did it give?
Answer: Its Potency is inconclusive: 7.94 µM [inhibitor, partial curve, poor fit].

Question: Which Potency does the source give for `CC(=O)Nc1ccc(NC(=O)CCNS(=O)(=O)c2ccc3c(c2)CCN3C(=O)C2CC2)cc1` here?
Answer: The Potency was “inactive”.

Question: How did the Potency turn out when `Cc1ccc(-c2cc3ccccc3[nH]2)c(C)c1` was run?
Answer: The Potency was inconclusive: 25.1 µM [inhibitor, partial curve, poor fit].

Question: For `O=C1NCCCCCCN(Cc2ccncc2)[C@@H]2CN(S(=O)(=O)c3cccnc3)CC[C@H]12`, which Potency is on record?
Answer: The Potency was inconclusive: 15.8 µM [inhibitor, partial curve, poor fit].
